Experimental data: paper PMC11661359, “Structure guided functional analysis of the S. cerevisiae Mre11 complex” (Research Square, 2024)
Substitutions are numbered along the chain they refer to. These are yes or no findings as the source states them, for the method shown. For part of these data: In cells and extracts the contact can be indirect. Some results given as binding are weak or reduced against the parent protein; the word gives no strength. For part of these data: Sequences can lack the tags named with a protein. One block for each binder: values may come before it.

Key:
[1] = target: T1, Mre11 (wild type, in S. cerevisiae cell extracts) (S. cerevisiae) (UniProt P32829); test: co-IP; cells grown at 30°C or 37°C; Rad50, Mre11 or Xrs2 immunoprecipitated from cell extracts, western blot with anti-Rad50, anti-Mre11 or anti-Xrs2 antibodies
T1 sequence: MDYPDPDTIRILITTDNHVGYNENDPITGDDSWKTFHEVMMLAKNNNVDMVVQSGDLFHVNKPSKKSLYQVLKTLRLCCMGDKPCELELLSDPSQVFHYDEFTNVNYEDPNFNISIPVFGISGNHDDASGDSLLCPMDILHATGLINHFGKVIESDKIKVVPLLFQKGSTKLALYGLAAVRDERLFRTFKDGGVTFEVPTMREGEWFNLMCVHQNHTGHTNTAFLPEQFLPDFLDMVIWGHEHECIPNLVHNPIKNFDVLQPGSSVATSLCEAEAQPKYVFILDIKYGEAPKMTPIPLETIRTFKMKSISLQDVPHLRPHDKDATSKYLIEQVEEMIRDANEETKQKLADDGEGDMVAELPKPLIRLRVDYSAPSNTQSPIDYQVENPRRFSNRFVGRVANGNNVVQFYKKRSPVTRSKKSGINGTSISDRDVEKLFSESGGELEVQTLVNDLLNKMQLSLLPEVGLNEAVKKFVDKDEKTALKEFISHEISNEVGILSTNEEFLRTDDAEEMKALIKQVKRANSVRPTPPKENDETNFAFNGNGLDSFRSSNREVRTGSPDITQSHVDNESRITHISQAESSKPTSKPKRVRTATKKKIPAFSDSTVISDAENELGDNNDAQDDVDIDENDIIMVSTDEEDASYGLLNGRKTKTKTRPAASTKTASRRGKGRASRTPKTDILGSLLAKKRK

[2] = target: T2, Mre11-MRI-5A1 (K322A N387A R389A R390A R412A) (S. cerevisiae) (UniProt P32829); test: as above
T2 sequence: T1 sequence with K322A, N387A, R389A, R390A, R412A

[3] = target: T3, Mre11-MRI-5A2 (K322A N387A R389A R390A K410A) (S. cerevisiae) (UniProt P32829); test: as above
T3 sequence: T1 sequence with K322A, N387A, R389A, R390A, K410A

[4] = target: T4, Mre11-MRI-6A (K322A N387A R389A R390A K410A R412A), in cell extracts (S. cerevisiae) (UniProt P32829); test: as above
T4 sequence: T1 sequence with K322A, N387A, R389A, R390A, K410A, R412A

[5] = target: T5, Mre11 (wild type) as Gal4 fusion for the yeast two-hybrid assay (S. cerevisiae), P32829; test: two-hybrid; Gal4 DNA-binding domain (pGBD; TRP1) and Gal4 activation domain (pGAD; LEU2) fusions; growth in absence of histidine (Do-TLH) and of adenine and histidine (Do-TLAH); conditions: remark: other sources report otherwise
T5 chain: T1 sequence

[6] = target: T6, S. cerevisiae Mre11 with a C-terminal 1xFLAG tag (Mre11 of the purified MR^EQ complex) (S. cerevisiae), P32829; test: cryo-EM structure; purified MR^EQ incubated with a 83-mer dsDNA in the presence of ATP, MgCl2 and MnCl2; 3.2 Å; both purified; conditions: remark: other sources report otherwise
T6 chain: T1 sequence

binding [1]: binds
binding [2]: binds
binding [3]: binds
binding [4]: binds
B1: Rad50 (wild type, in S. cerevisiae cell extracts) (enzyme, UniProt P12753 1-1312)
chain: MSAIYKLSIQGIRSFDSNDRETIEFGKPLTLIVGMNGSGKTTIIECLKYATTGDLPPNSKGGVFIHDPKITGEKDIRAQVKLAFTSANGLNMIVTRNIQLLMKKTTTTFKTLEGQLVAINNSGDRSTLSTRSLELDAQVPLYLGVPKAILEYVIFCHQEDSLWPLSEPSNLKKKFDEIFQAMKFTKALDNLKSIKKDMSVDIKLLKQSVEHLKLDKDRSKAMKLNIHQLQTKIDQYNEEVSEIESQLNEITEKSDKLFKSNQDFQKILSKVENLKNTKLSISDQVKRLSNSIDILDLSKPDLQNLLANFSKVLMDKNNQLRDLETDISSLKDRQSSLQSLSNSLIRRQGELEAGKETYEKNRNHLSSLKEAFQHKFQGLSNIENSDMAQVNHEMSQFKAFISQDLTDTIDQFAKDIQLKETNLSDLIKSITVDSQNLEYNKKDRSKLIHDSEELAEKLKSFKSLSTQDSLNHELENLKTYKEKLQSWESENIIPKLNQKIEEKNNEMIILENQIEKFQDRIMKTNQQADLYAKLGLIKKSINTKLDELQKITEKLQNDSRIRQVFPLTQEFQRADLEMDFQKLFINMQKNIAINNKKMHELDRRYTNALYNLNTIEKDLQDNQKSKEKVIQLLSENLPEDCTIDEYNDVLEETELSYKTALENLKMHQTTLEFNRKALEIAERDSCCYLCSRKFENESFKSKLLQELKTKTDANFEKTLKDTVQNEKEYLHSLRLLEKHIITLNSINEKIDNSQKCLEKAKEETKTSKSKLDELEVDSTKLKDEKELAESEIRPLIEKFTYLEKELKDLENSSKTISEELSIYNTSEDGIQTVDELRDQQRKMNDSLRELRKTISDLQMEKDEKVRENSRMINLIKEKELTVSEIESSLTQKQNIDDSIRSKRENINDIDSRVKELEARIISLKNKKDEAQSVLDKVKNERDIQVRNKQKTVADINRLIDRFQTIYNEVVDFEAKGFDELQTTIKELELNKAQMLELKEQLDLKSNEVNEEKRKLADSNNEEKNLKQNLELIELKSQLQHIESEISRLDVQNAEAERDKYQEESLRLRTRFEKLSSENAGKLGEMKQLQNQIDSLTHQLRTDYKDIEKNYHKEWVELQTRSFVTDDIDVYSKALDSAIMKYHGLKMQDINRIIDELWKRTYSGTDIDTIKIRSDEVSSTVKGKSYNYRVVMYKQDVELDMRGRCSAGQKVLASIIIRLALSETFGANCGVIALDEPTTNLDEENIESLAKSLHNIINMRRHQKNFQLIVITHDEKFLGHMNAAAFTDHFFKVKRDDRQKSQIEWVDINRVTY

binding [5]: binds
B2: Mre11 (wild type) as Gal4 fusion for the yeast two-hybrid assay, P32829 1-692 (enzyme)
chain: T1 sequence

binding [6]: binds
B3: S. cerevisiae Mre11 with a C-terminal 1xFLAG tag (Mre11 of the purified MR^EQ complex), P32829 1-692 (enzyme)
chain: T1 sequence
